Measured values reported in patent publication US11000038B2, “Pyridone compounds and agricultural and horticultural fungicides containing the same as active ingredients” (priority 2017, dated 2021).

What was measured:
[1] = system: gray mold fungi (Botrytis cinerea); test: Test Example B: tomato gray mold, spray treatment of tomato plants; conditions: tomato gray mold, spray treatment of tomato plants
[2] = system: grape downy mildew fungus (Plasmopara viticola); test: Test Example G: grape downy mildew, spray treatment of grape plants; conditions: grape downy mildew, 250 ppm spray (2.5 ml/pot), 7 to 10 days after inoculation
[3] = system: barley powdery mildew fungi (Blumeria graminis f. sp. hordei); test: Test Example D: barley powdery mildew, spray treatment of barley plants; conditions: barley powdery mildew, spray treatment of barley plants
[4] = system: wheat brown rust fungi (Puccinia recondita); test: Test Example E: wheat brown rust, spray treatment of wheat plants; assay type: in vivo; conditions: wheat brown rust, spray treatment of wheat plants
[5] = system: cabbage Alternaria sooty spot fungi (Alternaia brassicicola); test: Test Example C: cabbage Alternaria sooty spot, spray treatment of cabbage plants; assay type: in vivo; conditions: cabbage Alternaria sooty spot, spray treatment of cabbage plants
Description: [Test Example C] Cabbage Alternaria Sooty Spot
Test plants (cabbage variety: Shikidori) were cultivated until the cotyledons extended after the sowing of seeds.
<Control Value> Control value=100{1−(n/3)}

Structure (SMILES) | Test B control value [1] | Test G control value [2] | Test D control value [3] | Test E control value [4] | Test C control value [5]
Cc1ccc(C)c(-n2cc(Br)c(=O)c(Br)c2-c2c(F)cccc2F)c1 [Compound 207] | L (L shows the control value of 50% or less) | L (L shows the control value of 50% or less) | L (L shows the control value of 50% or less) | H (H shows the control value of more than 50%) | L (L shows the control value of 50% or less)
Cc1ccc(C)c(-n2cc(Cl)c(=O)c(Br)c2-c2c(F)cccc2F)c1 [Compound 208] | L (L shows the control value of 50% or less) | L (L shows the control value of 50% or less) | L (L shows the control value of 50% or less) | H (H shows the control value of more than 50%) | L (L shows the control value of 50% or less)
Cc1ccc(C)c(-n2cc(Cl)c(=O)c(Cl)c2-c2c(F)cccc2F)c1 [Compound 209] | H (H shows the control value of more than 50%) | L (L shows the control value of 50% or less) | L (L shows the control value of 50% or less) | H (H shows the control value of more than 50%) | H (H shows the control value of more than 50%)
COCCn1cc(Cl)c(=O)c(Cl)c1-c1c(F)cc(F)cc1F [Compound 210] | L (L shows the control value of 50% or less) | H (H shows the control value of more than 50%) | L (L shows the control value of 50% or less) | H (H shows the control value of more than 50%) | L (L shows the control value of 50% or less)
COCCn1cc(Br)c(=O)c(Br)c1-c1c(F)cc(F)cc1F [Compound 213] | L (L shows the control value of 50% or less) | H (H shows the control value of more than 50%) | L (L shows the control value of 50% or less) | H (H shows the control value of more than 50%) | H (H shows the control value of more than 50%)
COc1cc(F)c(-c2c(Br)c(=O)c(Cl)cn2CC(C)(C)C)c(F)c1 [Compound 214] | H (H shows the control value of more than 50%) | L (L shows the control value of 50% or less) | L (L shows the control value of 50% or less) | H (H shows the control value of more than 50%) | H (H shows the control value of more than 50%)
COc1cc(F)c(-c2c(Cl)c(=O)c(Br)cn2CC(C)(C)C)c(F)c1 [Compound 215] | H (H shows the control value of more than 50%) | L (L shows the control value of 50% or less) | L (L shows the control value of 50% or less) | H (H shows the control value of more than 50%) | H (H shows the control value of more than 50%)
Cc1ccccc1-n1cc(C)c(=S)c(C)c1-c1c(F)cc(F)cc1F [Compound 216] | H (H shows the control value of more than 50%) | H (H shows the control value of more than 50%) | H (H shows the control value of more than 50%) | H (H shows the control value of more than 50%) | H (H shows the control value of more than 50%)
COc1ccc(C)c(-n2cc(Br)c(=O)c(Cl)c2-c2c(F)cc(F)cc2F)c1 [Compound 217, 5-bromo-3-chloro-1-(5-methoxy-2-methylphenyl)-2-(2,4,6-trifluorophenyl)pyridin-4(1H)-one] | H (H shows the control value of more than 50%) | H (H shows the control value of more than 50%) | H (H shows the control value of more than 50%) | H (H shows the control value of more than 50%) | H (H shows the control value of more than 50%)
COc1ccc(C)c(-n2cc(Br)c(=O)c(Br)c2-c2c(F)cc(F)cc2F)c1 [Compound 218] | H (H shows the control value of more than 50%) | H (H shows the control value of more than 50%) | H (H shows the control value of more than 50%) | H (H shows the control value of more than 50%) | H (H shows the control value of more than 50%)
CCc1c(-c2c(F)cc(F)cc2F)n(CC(C)C)cc(Br)c1=O [Compound 220] | H (H shows the control value of more than 50%) | H (H shows the control value of more than 50%) | H (H shows the control value of more than 50%) | H (H shows the control value of more than 50%) | H (H shows the control value of more than 50%)
CCCCn1cc(Cl)c(=O)c(Cl)c1-c1c(F)cc(F)cc1F [Compound 221] | H (H shows the control value of more than 50%) | H (H shows the control value of more than 50%) | L (L shows the control value of 50% or less) | H (H shows the control value of more than 50%) | H (H shows the control value of more than 50%)
CCCCn1cc(Cl)c(=O)c(Br)c1-c1c(F)cc(F)cc1F [Compound 222] | H (H shows the control value of more than 50%) | H (H shows the control value of more than 50%) | L (L shows the control value of 50% or less) | H (H shows the control value of more than 50%) | H (H shows the control value of more than 50%)
CCc1c(-c2c(F)cc(F)cc2F)n(CC(C)C)cc(Cl)c1=O [Compound 224] | H (H shows the control value of more than 50%) | L (L shows the control value of 50% or less) | H (H shows the control value of more than 50%) | H (H shows the control value of more than 50%) | H (H shows the control value of more than 50%)
COc1cc(F)c(-c2c(C)c(=S)c(C)cn2-c2ccccc2C)c(F)c1 [Compound 225] | H (H shows the control value of more than 50%) | L (L shows the control value of 50% or less) | L (L shows the control value of 50% or less) | L (L shows the control value of 50% or less) | H (H shows the control value of more than 50%)
Cc1ccccc1-n1cc(C)c(=O)c(C)c1-c1ccc(F)cc1 [Compound 226] | H (H shows the control value of more than 50%) | L (L shows the control value of 50% or less) | L (L shows the control value of 50% or less) | H (H shows the control value of more than 50%) | H (H shows the control value of more than 50%)
COc1ccc(C)c(-n2cc(Cl)c(=O)c(Br)c2-c2c(F)cc(F)cc2F)c1 [Compound 228] | H (H shows the control value of more than 50%) | H (H shows the control value of more than 50%) | H (H shows the control value of more than 50%) | H (H shows the control value of more than 50%) | H (H shows the control value of more than 50%)
COc1ccc(C)c(-n2cc(Cl)c(=O)c(Cl)c2-c2c(F)cc(F)cc2F)c1 [Compound 229] | H (H shows the control value of more than 50%) | H (H shows the control value of more than 50%) | H (H shows the control value of more than 50%) | H (H shows the control value of more than 50%) | H (H shows the control value of more than 50%)
Cc1ccc(Cl)cc1-n1cc(Br)c(=O)c(Cl)c1-c1c(F)cc(F)cc1F [Compound 230] | H (H shows the control value of more than 50%) | L (L shows the control value of 50% or less) | L (L shows the control value of 50% or less) | H (H shows the control value of more than 50%) | H (H shows the control value of more than 50%)
CCc1c(-c2c(F)cc(F)cc2F)n(CC(C)C)cc(C)c1=O [Compound 231] | H (H shows the control value of more than 50%) | L (L shows the control value of 50% or less) | H (H shows the control value of more than 50%) | H (H shows the control value of more than 50%) | H (H shows the control value of more than 50%)
CCc1c(-c2c(F)cc(OC)cc2F)n(CC(C)C)cc(C)c1=O [Compound 232] | H (H shows the control value of more than 50%) | L (L shows the control value of 50% or less) | H (H shows the control value of more than 50%) | H (H shows the control value of more than 50%) | H (H shows the control value of more than 50%)
